# The whole screen tested about 94,000 compounds, of which about 4,000 (4.3%) were called active. This list was built around the results that the source calls inconclusive (neither active nor inactive); the mix of calls is not that of the screen. The call rests on the fitted dose curve; in most records, active means well fitted inhibition curve with a large enough effect; inconclusive means small, poorly fitted or top-dose-only effect; inactive means no such curve, though single readings can be large or run the other way. Potencies of inconclusive entries are doubtful fits and often do not repeat.
# Experiment: Cytotoxic Profiling in NIH 3T3 Cell Line of Diverse Libraries Using Quantitative High-Throughput Screening; further: nearly all actives have a fitted effect of over 55% in size
# Conditions: NIH 3T3 viability, CellTiter-Glo ATP luminescence, 48-72 h; series mostly up to 96.7 µM
# Summary of the method: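 Cytotoxicity is measured as loss of cellular ATP: NIH 3T3 cells (400/well) are exposed to compound for 48 or 72 hr at 37 °C, then CellTiter-Glo luminescence is imaged after 10 min at room temperature.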
# Potency means the concentration at half of the fitted maximal effect; tags describe the fitted curve by direction and shape.
row,Compound,Potency
1,Cc1ccc(-c2nnc([C@H]3CCN(C(=O)NC4CCCCC4)C3)o2)cc1,"inconclusive: 79.4 µM [inhibitor, partial curve, poor fit]"
2,CC(C)NC(=O)c1nc(-c2ccc(Cl)cc2)c2ccccn12,"inconclusive: 50.1 µM [inhibitor, partial curve, poor fit]"
3,CCn1cc(S(=O)(=O)N2CC[C@H](c3nc(C)no3)[C@H](NC(=O)C3CC3)C2)cn1,"inconclusive: 79.4 µM [inhibitor, partial curve, poor fit]"
4,O=C(Nc1ccc(Cl)cc1)c1nc2c(o1)CCN(Cc1ccsc1)CC2,"inconclusive: 89.1 µM [inhibitor, partial curve, poor fit]"
5,C[C@@H]1C(=O)O[C@H]2[C@H]1CC[C@@]1(C)Cc3sc(Nc4ccc(C(=O)O)cc4)nc3[C@@H](C)[C@H]21,inactive
6,COc1ccccc1C(=O)NC[C@H]1Cn2c(-c3ccc4c(c3)OCCO4)cnc2CO1,"inconclusive: 79.4 µM [inhibitor, partial curve, poor fit]"
7,O=C(NCc1ccccc1F)c1cc(-c2cc(Cl)cc(Cl)c2)c2nncn2n1,inactive
8,Cc1nc(-c2c3n(c(=O)n(CC(=O)NCc4ccc(F)cc4)c2=O)CCCCC3)no1,inactive
9,O=C1COc2ccc(-c3ccccc3F)nc2CN1CCOc1ccccc1,"inconclusive: 79.4 µM [inhibitor, partial curve]"
10,CCc1ccc(N2CC(c3ncon3)CC2=O)cc1 (configuration not stated),inactive
11,COc1ccc(-c2cc3c(=O)n(CCNC(=O)c4cccc(OC)c4OC)ccn3n2)cc1,"inconclusive: 50.1 µM [inhibitor, partial curve, poor fit]"
12,COc1cccc(CNC(=O)c2cccc3c2CCN3C(=O)c2ccc(F)cc2)c1,"inconclusive: 44.7 µM [inhibitor, partial curve, poor fit]"
13,Cc1ccc(-c2noc([C@@H]3C[C@@H](O)CN3CC3CC3)n2)cc1F,"inconclusive: 100 µM [inhibitor, single point]"
14,O=C(NCCc1ccccc1)N(C1CCOCC1)C1CCN(CC2CCCCC2)CC1,inactive
15,Cn1ncc2c(C(=O)NCCCNC(=O)OC(C)(C)C)cc(-c3ccc(F)cc3)nc21,"inconclusive: 44.7 µM [inhibitor, partial curve, poor fit]"
16,CCC1(N2CCN(S(=O)(=O)c3ccc(Cl)cc3C)CC2)CCN(C(=O)C(C)C)C1 (configuration not stated),"inconclusive: 31.6 µM [inhibitor, partial curve, poor fit]"
17,COc1ncccc1CN1CCCC12Cc1ccccc1CNC2=O (configuration not stated),inactive
18,O=C(NC1CCCC1)N1CCC(Oc2ccccc2-c2nc(-c3ccncc3)no2)C1 (configuration not stated),"inconclusive: 50.1 µM [inhibitor, partial curve, poor fit]"
19,CCN1c2cc(C(=O)NC3CCN(Cc4ccccc4)CC3)ccc2C(=O)N2CCCCC21 (configuration not stated),"inconclusive: 50.1 µM [inhibitor, partial curve, poor fit]"
20,O=C1NCCCCCCN(Cc2ccc(C(F)(F)F)cc2)[C@H]2CCC[C@@H]12,"inconclusive: 50.1 µM [inhibitor, partial curve, poor fit]"
21,COc1ccc(-n2nc(C3CCCN(CC4CCCCC4)C3)[nH]c2=O)cc1 (configuration not stated),inactive

row,Compound,Potency
1,O=C(c1ccc2cc[nH]c2c1)N1CCC(N2C(=O)C(OCC3CC3)C23CCOCC3)CC1 (configuration not stated),inactive
2,O=C(Cc1ccccc1)NCC1CN(C(=O)Cc2cccc(C(F)(F)F)c2)CC12CN(c1ccccc1)C2 (configuration not stated),"inconclusive: 70.8 µM [inhibitor, single point]"
3,O=C1c2cnc(Cc3ccccc3)nc2OCCN1c1cccc(C(F)(F)F)c1,"inconclusive: 89.1 µM [inhibitor, partial curve]"
4,CCOC(=O)[C@@H]1CN(C(=O)OCC)[C@H]2c3ccc(OC)cc3O[C@@H]12,"inconclusive: 50.1 µM [inhibitor, partial curve, poor fit]"
5,Cc1cccc(C(=O)NCC2Cn3cccc3C(=O)N2Cc2ccccc2)c1 (configuration not stated),"inconclusive: 39.8 µM [inhibitor, partial curve]"
6,COCCN1CCCCCC(O)c2cc(C(=O)NCCc3cccnc3)ccc21 (configuration not stated),inactive
7,O=C(Cc1ccc(Cl)cc1)NCC1COc2ncncc2C(=O)N1Cc1ccccc1 (configuration not stated),"inconclusive: 89.1 µM [inhibitor, partial curve, poor fit]"
8,CCC(=O)N1CCN(c2nc3c(s2)CC(C(=O)NCc2ccc(C)o2)CC3)CC1 (configuration not stated),"inconclusive: 56.2 µM [inhibitor, partial curve, poor fit]"
9,COc1ccc(-c2cc(-c3ccc4cn[nH]c4c3)cn3cncc23)cc1,active: 79.4 µM
10,COc1ccccc1Nc1ccnc(N2CCC(C(=O)N3CCCC3)CC2)n1,"inconclusive: 39.8 µM [inhibitor, partial curve, poor fit]"
11,O=C(Nc1ncc(-c2cccc(F)c2)c2c1OCC2)c1cccnc1,"inconclusive: 10 µM [inhibitor, full curve, poor fit]"
12,CN1c2cc(C(=O)Nc3ccc(C(N)=O)cc3)ccc2C(=O)N2CCCCC21 (configuration not stated),"inconclusive: 50.1 µM [inhibitor, partial curve, poor fit]"
13,CC(C)CN[C@H]1CO[C@H]2[C@@H]1OC[C@@H]2Nc1nccc(-c2cccs2)n1,"inconclusive: 79.4 µM [inhibitor, partial curve]"
14,CCc1noc(-c2cn(C3CCN(C(=O)c4ccc(C(C)(C)C)cc4)C3)nn2)n1 (configuration not stated),"inconclusive: 11.2 µM [inhibitor, partial curve, poor fit]"
15,COc1ccccc1CN(C)C(=O)c1coc(COc2cccc(F)c2F)n1,"inconclusive: 44.7 µM [inhibitor, partial curve]"
16,CCOC(=O)[C@H]1C[C@]2(CCCCN(CCOC)C2=O)N(C(=O)c2ccco2)[C@H]1c1ccco1,"inconclusive: 79.4 µM [inhibitor, partial curve, poor fit]"
17,O=C1Cc2c(-c3ccccc3Cl)n[nH]c2CN1Cc1ccccn1,active: 79.4 µM
18,COc1ccc(-c2ccc3c(n2)CN(Cc2ccccc2)C(=O)CO3)cc1F,active: 79.4 µM
19,O=C(Nc1ncc(-c2cccc(F)c2)c2c1OCC2)c1ccncc1,"inconclusive: 44.7 µM [inhibitor, partial curve, poor fit]"
20,CCOC(=O)[C@@H]1[C@@H](O)C(=O)N(C)C12CCN(C(=O)c1cccc(C#N)c1)CC2,"inconclusive: 50.1 µM [inhibitor, partial curve, poor fit]"
21,O=C1COc2ccc(-c3ccccc3)nc2CN1Cc1ccccc1F,"inconclusive: 56.2 µM [inhibitor, partial curve, poor fit]"

row,Compound,Potency
1,O=C(c1ccccc1F)N1CCCC(C(=O)N2CCC(c3nc4ccncc4[nH]3)C2)C1 (configuration not stated),inactive
2,c1cncc(-c2nnc3n2CCN(CC2CC2)C3)c1,"inconclusive: 112 µM [inhibitor, single point]"
3,Cc1ccc(C)c(S(=O)(=O)N2c3ccccc3CC2c2nc(C(C)C)no2)c1 (configuration not stated),"inconclusive: 20 µM [inhibitor, full curve, poor fit]"
4,Cc1ccccc1CN1CCc2nc(N3CCN(C)CC3)[nH]c(=O)c2CC1,inactive
5,Cc1cc(C)cc(NC(=O)N2[C@@H]3CC[C@H]2CC(NC(=O)c2ccc(F)cc2)C3)c1 (some centres not stated),"inconclusive: 44.7 µM [inhibitor, partial curve, poor fit]"
6,O=C(NCCc1ccccc1F)c1ccc2nnc(-c3cc(C(F)(F)F)cc(C(F)(F)F)c3)n2c1,"inconclusive: 50.1 µM [inhibitor, partial curve, poor fit]"
7,Cc1ccc(CCNC(=O)c2ccc3c(c2)N(C)C2CCCCN2C3=O)cc1 (configuration not stated),"inconclusive: 56.2 µM [inhibitor, single point]"
8,COc1ccc(Cl)cc1NC(=O)Cn1c(-c2ccc(F)cc2)nc(C)c(CCO)c1=O,"inconclusive: 35.5 µM [inhibitor, partial curve, poor fit]"
9,O=C(c1nnn2cc(-c3ccccc3)[nH]c(=O)c12)N1CCCCCC1,inactive
10,C#CCNC(=O)c1ccc2oc(-c3cccnc3OC)nc2c1,inactive
11,Cc1cccc(-c2ccccc2CN)c1,inactive
12,CCN1c2cc(C(=O)Nc3cccc(C(F)(F)F)c3)ccc2C(=O)N2CCCC21 (configuration not stated),active: 35.5 µM
13,Cc1cccnc1CN(C)C(=O)c1ccc2nc(-c3ccccc3)cn2c1,"inconclusive: 50.1 µM [inhibitor, partial curve, poor fit]"
14,COc1ccc(-c2[nH]nc3ncc(C(=O)NCc4ccccc4)nc23)c(C)c1,"inconclusive: 100 µM [inhibitor, partial curve, poor fit]"
15,COc1ccc(C(=O)N[C@@H]2CCC[C@@H]2C(=O)N2CCN(c3ccccc3OC)CC2)cc1,inactive
16,O=C(Cc1cccc(F)c1)NCC1COc2ncncc2C(=O)N1Cc1ccccc1 (configuration not stated),"inconclusive: 50.1 µM [inhibitor, partial curve, poor fit]"
17,C[C@]1(CO)[C@H]2Cc3sc(NC(=O)c4ccc(F)cc4)nc3[C@@H](CC(=O)O)[C@]2(C)CC[C@H]1O,inactive
18,CN(C)CCCOCC1(C)COc2ccc(C(=O)Nc3cccc(Cl)c3)cc2N1 (configuration not stated),"inconclusive: 35.5 µM [inhibitor, partial curve, poor fit]"
19,CCc1ccc(NC(=O)N2C[C@@H](F)C[C@H]2C(=O)N2CCc3ccccc3C2)cc1,"inconclusive: 70.8 µM [inhibitor, single point]"
20,O=C(NCc1ccccc1Cl)c1ccc2nnc(C3CCCC3)n2c1,active: 35.5 µM
